The target in assay [1] is T1, Lipidated human tissue factor (human, UniProt P13726 33-295).
T1 construct: also called hTF; human TF
The experiment in a line: SPR (Biacore 3000), lipidated human TF on chip. The protocol: (§1) The GE procedure for proteoliposome immobilization (amine coupling) protocol was used to coat PS/PC/rTF on flow cell 2, and PS/PC/hTF on flow cell 3. Flow cells were equilibrated with running buffer (15 mM Hepes, 150 mM NaCl, 5 mM CaCl2, 25 mM Arginine, 0.01% Tween 80, pH7.4) at a flow rate of 5 μL/min. Kinetic analyses were performed at 37° C. by flowing consecutively increasing concentrations of each analyte […] in the running buffer (15 mM. HEPES, 150 mM NaCl, 5 mM CaCl2, 25 mM Arginine, 0.01% Tween 80, pH 7.4) over the sensor chip for 5 min followed by a 10 min dissociation period at a flow rate of 30 μL/min in parallel.
(§2) Analyte binding to the lipidated TF was determined by subtracting the RU values noted in the reference flow cell 1 from flow cell 2 and 3. Binding of analytes to the TFs was monitored in real time to obtain on (ka) and off (kd) rates. The equilibrium dissociation constant (KD) was calculated from the observed ka and kd.
(§3) Based on the saturation concentration of the analyte, binding analysis was performed using saturating analyte concentrations of 0-500 nM for rabbit TF and 0-50 nM for human TF. Chi squared (χ²) analysis was carried out between the actual sensorgram and the calculated on- and off-rates to determine the accuracy of the analysis.

The target in assay [2] is T2, Lipidated rabbit tissue factor (rabbit, UniProt P24055 33-292, limits assumed).
T2 construct: Amine-coupled as a proteoliposome to flow cell 2 of the Biacore chip; Also used to start thrombin generation in rabbit plasma; also called rTF; rabbit TF
T2 sequence (looked up): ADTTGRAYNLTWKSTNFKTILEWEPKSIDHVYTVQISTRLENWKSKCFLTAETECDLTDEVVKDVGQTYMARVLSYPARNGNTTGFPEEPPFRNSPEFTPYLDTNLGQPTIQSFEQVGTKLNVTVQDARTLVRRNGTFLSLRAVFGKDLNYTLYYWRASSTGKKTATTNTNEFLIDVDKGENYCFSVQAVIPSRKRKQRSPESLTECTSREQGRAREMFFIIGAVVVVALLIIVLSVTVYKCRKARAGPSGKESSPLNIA
The experiment in a line: SPR (Biacore 3000), lipidated rabbit TF on chip. The protocol: as §1, §2, §3

Assay [3] has as its target T1, Lipidated human tissue factor. The experiment in a line: SPR (Biacore 3000), lipidated human TF amine-coupled, analyte 0-50 nM, 37 C. The method, then:
as §1, §2, §3

The target in assay [4] is T2, Lipidated rabbit tissue factor. The experiment in a line: SPR (Biacore 3000), lipidated rabbit TF amine-coupled, analyte 0-500 nM, 37 C. The method, then: as §1, §2, §3

B1: hI-con1 (Homo sapiens factor VII active site mutant immunoconjugate; mutated human factor VIIa conjugated to human IgG1 Fc) (Fc fusion)
chain: ANAFLEELRPGSLERECKEEQCSFEEAREIFKDAERTKLFWISYSDGDQCASSPCQNGGSCKDQLQSYICFCLPAFEGRNCETHKDDQLICVNENGGCEQYCSDHTGTKRSCRCHEGYSLLADGVSCTPTVEYPCGKIPILEKRNASKPQGRIVGGKVCPKGECPWQVLLLVNGAQLCGGTLINTIWVVSAAHCFDKIKNWRNLIAVLGEHDLSEHDGDEQSRRVAQVIIPSTYVPGTTNHDIALLRLHQPVVLTDHVVPLCLPERTFSERTLAFVRFSLVSGWGQLLDRGATALELMVLNVPRLMTQDCLQQSRKVGDSPNITEYMFCAGYSDGSKDSCAGDSGGPHATHYRGTWYLTGIVSWGQGCATVGHFGVYTRVSQYIEWLQKLMRSEPRPGVLLRAPFPGSA[gap - human IgG1 Fc]
notes: also called immunoconjugate dimer
In assay [1], B1 registered a Kd of 0.892 nM. In assay [2], this molecule showed a Kd of 53.2 nM. For the same molecule, in assay [3], the Ka stood at 1.1e+09 M⁻¹, the koff worked out at 0.00055 s⁻¹ and the kon amounted to 620000 M⁻¹ s⁻¹. Also, in assay [4], the Kd is 53 nM, the koff amounted to 0.003 s⁻¹ and the kon stood at 56000 M⁻¹ s⁻¹.

Values taken from patent US20210236649A1 (ICONIC THERAPEUTICS, published 2021).
